# B1: anakinra ([Met25]hIL-1Ra([…])) (ligand)
# chain: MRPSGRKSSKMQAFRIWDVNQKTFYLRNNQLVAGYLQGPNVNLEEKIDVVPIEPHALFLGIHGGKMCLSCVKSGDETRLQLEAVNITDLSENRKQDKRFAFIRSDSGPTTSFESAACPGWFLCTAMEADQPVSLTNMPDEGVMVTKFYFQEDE
# B2: [Met25]hIL-1Ra([…]) with N-hexadecandioyl-gamma-L-glutamate in position K118 or K121 (compound A) (ligand)
# chain: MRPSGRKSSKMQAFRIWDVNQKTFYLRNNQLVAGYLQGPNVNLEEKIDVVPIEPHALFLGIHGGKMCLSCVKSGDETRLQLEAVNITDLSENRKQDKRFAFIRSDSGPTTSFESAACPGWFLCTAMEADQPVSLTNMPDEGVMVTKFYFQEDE
# modifications: monoacylation with N-hexadecandioyl-gamma-L-glutamate on the epsilon amino group of K118 or K121 (positions relative to hIL-1Ra Isoform 1); product contained ~50% of each isomer
# B3: N-epsilon118-[N-octadecandioyl-gamma-L-glutamyl-[2-(2-amino-ethoxy)-ethoxy]-acetyl-[2-(2-amino-ethoxy)-ethoxy]-acetyl][Met25]hIL-1Ra([…]) (compound B) (ligand)
# chain: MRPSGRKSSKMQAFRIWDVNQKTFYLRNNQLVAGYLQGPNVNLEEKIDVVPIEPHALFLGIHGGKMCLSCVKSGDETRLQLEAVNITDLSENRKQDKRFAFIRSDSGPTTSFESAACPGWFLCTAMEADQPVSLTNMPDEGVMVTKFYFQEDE
# modifications: N-octadecandioyl-gamma-L-glutamyl-[2-(2-amino-ethoxy)-ethoxy]-acetyl-[2-(2-amino-ethoxy)-ethoxy]-acetyl on the epsilon amino group of K118 (position relative to hIL-1Ra Isoform 1); more than 80% of acylation was on this residue
# B4: [Met25]hIL-1Ra([…]) with N-octadecandioyl-gamma-L-glutamyl-[2-(2-amino-ethoxy)-ethoxy]-acetyl-[2-(2-amino-ethoxy)-ethoxy]-acetyl in position K31 or K34 … (ligand)
# chain: not shown
# modifications: monoacylation with N-octadecandioyl-gamma-L-glutamyl-[2-(2-amino-ethoxy)-ethoxy]-acetyl-[2-(2-amino-ethoxy)-ethoxy]-acetyl on the epsilon amino group of K31 or K34 (positions relative to hIL-1Ra Isoform 1)
# Target: IL-1 receptor expressed by INS-1 cells (rat (INS-1 cells are derived from a rat …, UniProt Q02955))
# Experiment: cell-based or functional assay
row,Binder,NO release [µM]
1,B1,0.54
2,B2,-0.76
3,B3,0.27
4,B4,2.36
